Source: the supplement of paper PMC3334620
In all, about 33,000 sequences were measured (“E-score (-0.5 to 0.5)”: median about -0.041, highest 2% from about 0.37 on). The list shows a part of the results.

What follows are sequences tested against T1, Ecm22 (UniProt Q05958) (assay: PBM E-score (8-mer binding enrichment) (E-score (-0.5 to 0.5)); higher = stronger / more preferred TF binding; most listed sequences are background and not binding sites). Settings: protein concentration: 200 nM; construct: GST-full length.
T1 sequence: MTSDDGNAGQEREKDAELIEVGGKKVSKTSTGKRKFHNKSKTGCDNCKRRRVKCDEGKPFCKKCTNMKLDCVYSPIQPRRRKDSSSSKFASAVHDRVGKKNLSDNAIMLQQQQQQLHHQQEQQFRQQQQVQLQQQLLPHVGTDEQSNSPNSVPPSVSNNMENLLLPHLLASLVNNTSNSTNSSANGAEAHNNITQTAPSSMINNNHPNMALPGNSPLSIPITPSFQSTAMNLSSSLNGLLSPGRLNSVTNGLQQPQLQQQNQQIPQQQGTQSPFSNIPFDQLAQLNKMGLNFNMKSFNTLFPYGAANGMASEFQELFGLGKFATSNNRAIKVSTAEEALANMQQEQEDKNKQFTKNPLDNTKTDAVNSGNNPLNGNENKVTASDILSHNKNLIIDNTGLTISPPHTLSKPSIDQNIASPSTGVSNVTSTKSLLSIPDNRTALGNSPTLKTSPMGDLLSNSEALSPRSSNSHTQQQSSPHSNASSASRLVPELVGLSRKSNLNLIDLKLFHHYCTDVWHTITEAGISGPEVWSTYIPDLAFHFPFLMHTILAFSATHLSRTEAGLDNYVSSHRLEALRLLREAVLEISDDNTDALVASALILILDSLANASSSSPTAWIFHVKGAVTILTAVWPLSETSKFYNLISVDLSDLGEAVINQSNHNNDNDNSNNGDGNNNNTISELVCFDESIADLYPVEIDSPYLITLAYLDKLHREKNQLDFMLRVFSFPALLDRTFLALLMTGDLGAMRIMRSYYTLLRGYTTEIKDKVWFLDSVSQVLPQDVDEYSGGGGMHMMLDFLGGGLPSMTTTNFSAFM
Procedure, shortened: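 Detection of bound protein used fluorescent anti-GST, with scans normalised by masliner. The proteins were GST-tagged yeast transcription factors applied at about 100-200 nM to universal all-10-mer Agilent arrays made double-stranded by primer extension. Each ungapped eight-base word, pooled with its reverse complement, was scored with an E-score from the Universal PBM Analysis Suite.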

| Sequence | PBM E-score |
| --- | --- |
| CAGAGCGA | 0.0945 |
| GTGGTTTA | -0.201 |
| TTATTCAA | 0.101 |
| AGGGGCGA | -0.302 |
| GCGCGCCA | 0.1 |
| ACATCTAA | -0.0724 |
| CCTCGCAA | 0.185 |
| AACCCTCG | 0.0728 |
| ATGATAGG | -0.189 |
| AGTCAAAT | -0.259 |
| AGGGTCCA | -0.218 |
| GCATACGC | 0.199 |
| AGCAGTAA | -0.0493 |
| CGCTTCAC | 0.0136 |
| GGGGAACA | -0.0676 |
| ATACCCGA | 0.277 |
| AGAGTAGG | -0.156 |
| ACTCTTGC | -0.216 |
| GAATTGTC | -0.0741 |
| CGACCCAA | 0.241 |
| ATCTGAGG | -0.215 |
| ACGTTCTC | 0.107 |
| AGCAGAGG | -0.301 |
| CTCCCGCC | -0.234 |
| AGTATTTC | 0.0557 |

| Sequence | PBM E-score |
| --- | --- |
| TATGTGGA | -0.076 |
| ATGACCGG | -0.136 |
| GATTCTCC | -0.12 |
| CCCCTGAC | -0.17 |
| AAACTCGT | 0.34 |
| CCCTTCAA | -0.254 |
| ACTCGAGC | -0.0116 |
| AAATCGGT | 0.0646 |
| TAGGAGAA | -0.0999 |
| AACGATCA | 0.346 |
| AAACTGAG | -0.0707 |
| CAGTTAGC | -0.284 |
| GTGGCCGA | -0.194 |
| AGCAGGAC | -0.0126 |
| GTGGATTA | -0.0747 |
| CACTCAGA | -0.166 |
| ATAAGCGG | -0.0944 |
| AATCTGGG | -0.133 |
| GCACCCAC | 0.104 |
| AAGGGGAA | -0.293 |
| AGCTAGGA | -0.228 |
| AACAGACT | -0.1 |
| ACTAGGAT | 0.03 |
| CCCGTACC | 0.446 |
| AGTAGAAG | -0.0885 |

| Sequence | PBM E-score |
| --- | --- |
| AAGACAGT | -0.27 |
| ACAGGGGC | -0.0848 |
| CAGTGGTA | -0.12 |
| CCCCGAAC | -0.0375 |
| AAAATGAG | -0.189 |
| CACTGTGC | -0.121 |
| CACAGGGG | -0.0261 |
| AATGACGG | -0.12 |
| TGCGAACA | 0.204 |
| ATCGCTAG | 0.0184 |
| GGGGAAGA | -0.224 |
| ACCATCCC | -0.168 |
| ACTCCAAA | -0.0508 |
| CTTCCCTA | -0.364 |
| AGTTGCCA | -0.222 |
| CCTGTCGA | -0.0635 |
| CTGGTAAC | 0.0674 |
| AGCCGCTG | -0.203 |
| ACCCGTGA | -0.0665 |
| CACCTTCA | -0.329 |
| ACCACACC | -0.158 |
| CTGCTAAC | -0.152 |
| AAGGAGGT | -0.157 |
| GGGACCCC | -0.23 |
| CTCCTCGC | 0.126 |

| Sequence | PBM E-score |
| --- | --- |
| AGCCGCTC | 0.0341 |
| ATATGCGG | 0.162 |
| CAAGTACC | 0.12 |
| ACGGAGTG | 0.279 |
| AGCGCCAT | -0.152 |
| AACTCTAG | -0.062 |
| AGATCCCT | -0.0177 |
| AGGTCGGC | -0.138 |
| AGCGGGGC | 0.0632 |
| ACCATACG | 0.364 |
| AGCGAATG | 0.181 |
| AAGGCCTG | -0.215 |
| GGTTTACA | -0.0503 |
| AGTAACGC | -0.129 |
| AAACATGC | -0.0498 |
| ATTAGCTG | 0.00294 |
| GCTTCAGA | -0.236 |
| ATCCAAAA | -0.258 |
| CTCATGAG | -0.171 |
| GAACTAGC | 0.0254 |
| CCATAAGA | -0.26 |
| AACCTTCC | -0.157 |
| CTGAAATA | -0.247 |
| GCGTCACC | -0.163 |
| CAGAAACG | 0.307 |

| Sequence | PBM E-score |
| --- | --- |
| ATCGAAAA | 0.216 |
| AAAGTTTA | -0.0406 |
| TAATTACA | -0.00471 |
| CGGGCGCA | -0.158 |
| GATGAAAC | 0.182 |
| GGCCCCCC | -0.359 |
| GAAATAGA | 0.129 |
| GTCTCGCA | 0.149 |
| GAAGTACC | 0.144 |
| CAGTCGTA | 0.418 |
| ATAGCCAC | -0.0595 |
| CCGATGTA | -0.0854 |
| CTTCTACC | -0.192 |
| ACATAGGC | -0.184 |
| AGACCGTC | 0.0991 |
| CCTCCGCG | -0.12 |
| AAAGTACC | 0.0186 |
| TATAGAAA | 0.0324 |
| ACTATAGT | 0.0714 |
| AATATCAG | -0.0359 |
| GTTCGCAA | 0.284 |
| CTGCGGCC | 0.11 |
| CTGCGGGC | -0.163 |
| CTTAAAAC | -0.0116 |
| CGCTAGAC | -0.179 |

| Sequence | PBM E-score |
| --- | --- |
| CGCCGGCG | 0.0169 |
| CATTAAAG | -0.119 |
| AATCGGGT | 0.0669 |
| ACAACACC | -0.0964 |
| TCGTCTCA | 0.16 |
| CAGCAAAA | -0.0123 |
| CCCCCGCG | 0.141 |
| GCATTCGA | 0.081 |
| CTCTTACC | 0.081 |
| AAAGCTAC | -0.0131 |
| CACCAACG | -0.0112 |
| CTCCTCTA | -0.225 |
| GACGGAAA | 0.133 |
| CTTGCCCA | -0.0883 |
| AGGAAACC | -0.145 |
| AGTCAGTG | -0.119 |
| ACACGGGG | 0.0433 |
| AAATTTCG | 0.214 |
| AGCAGCCT | -0.102 |
| CCGTAAAA | 0.363 |
| GGGTAAAA | -0.029 |
| CCGCGGAC | -0.189 |
| ATTGGCCC | -0.351 |
| CACCAGCG | -0.0738 |
| AACTTAAA | -0.0683 |

| Sequence | PBM E-score |
| --- | --- |
| ATACTACA | 0.0442 |
| AATGAGAG | -0.231 |
| AACACTGT | -0.0705 |
| AACGTTTC | 0.156 |
| CAGTAAAG | -0.221 |
| CGCAGAAA | -0.15 |
| GGTAGTGA | -0.247 |
| GGACGACA | -0.173 |
| ACAAATGC | 0.0407 |
| CGGAAACC | -0.0249 |
| AGAAAACA | 0.084 |
| AAAGGACA | -0.0993 |
| TAGCCGCA | -0.155 |
| GTCATGGA | -0.2 |
| GTAAAGAC | 0.146 |
| ATTAATTC | 0.223 |
| AGGGATCA | -0.0911 |
| AGCAACCC | -0.0977 |
| GTGAGAAC | -0.0868 |
| CACTGAGC | -0.21 |
| CCCTCAAA | -0.157 |
| AACGGGGT | 0.137 |
